Experimental data reported in PubChem BioAssay (Tox21).
“And” between values parts separate entries of the source, which are not always exact repeats. Equal values may be shown once. Inconclusive means that the source gave no clear call. Such entries were picked first, then a sample of the others. For part of these data: Where the call is inconclusive, the potency comes from a doubtful curve fit. Some compounds were tested as several samples or in several runs, with calls that do not always agree. The source made the active and inactive calls. Unless noted, the call rests on the fitted dose curve; in most records, active means well fitted curve in the direction sought with a large enough effect in the repeat runs; inconclusive means weak or mixed curves; inactive means no such curve, though single readings can be large; an effect the other way counts as inactive or inconclusive.

How the values were obtained:
[1] = qHTS assay to identify small molecule that activate the aryl hydrocarbon receptor (AhR) signaling pathway - cell viability counter screen (AID 743086); further: nearly all actives have a fitted effect of over 45% in size;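 on viability change, negative = cytotoxic: HepG2 liver cells carrying the AhR DRE luciferase reporter; on the % scale 0 is the no-effect control and ±100 the full control effect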
Outline: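 Cytotoxicity counter screen: CellTiter-Fluor signal (30 min, 37 C) in 4000 HepG2 cells/well carrying the DRE-luciferase reporter, following 24 h compound exposure at 37 C.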

[2] = target: Peroxisome proliferator-activated receptor gamma (Homo sapiens) (UniProt P37231); experiment: qHTS assay to identify small molecule antagonists of the peroxisome proliferator-activated receptor gamma (PPARg) signaling pathway (AID 743191; calls by dose curve; further: nearly all actives have a fitted effect of over 30% in size; on ratio activity, negative = inhibition: on the % scale 0 is the no-effect control and ±100 the full control effect); conditions: HEK293H PPARg-UAS-bla, beta-lactamase ratio, antagonist, 17 h; ratio activity, negative = inhibition: at 62.6 µM (top of the series) unless noted
Outline: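 Beta-lactamase reporter under UAS control in HEK293H PPARg-bla cells; compound treatment 17 h at 37C. Read-out: fluorescence intensity after 1 h room-temperature incubation with LiveBLAzer B/G FRET substrate.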

[3] = qHTS assay to identify small molecule antagonists of the peroxisome proliferator-activated receptor gamma (PPARg) signaling pathway - cell viability counter screen (AID 743194); conditions: PPARg-bla HEK293H viability, CellTiter-Glo luminescence, 17 h, co-treated with 50 nM rosiglitazone; activity change, negative = cytotoxicity: at 62.6 µM (top of the series) unless noted; further: nearly all actives have a fitted effect of over 55% in size
Outline: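 Viability was measured as CellTiter-Glo luminescence in GeneBLAzer PPARg UAS-bla HEK293H cells. These cells had been exposed 17 h at 37 C to compounds together with rosiglitazone at 50 nM final, with the beta-lactamase readout taken in the same wells.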

[4] = qHTS assay for small molecule agonists of the antioxidant response element (ARE) signaling pathway (AID 743202; active means well fitted activation curve with a large enough effect in the signal ratio in the repeat runs, not every such curve was filed as active; inconclusive means weak or mixed curves, or effect the other way; inactive means no such curve, though single readings can be large or run the other way; the % refers to the signal ratio); conditions: HepG2 ARE-bla reporter, beta-lactamase FRET, 16 h; activation: at 73.3 µM (top of the series) unless noted
Outline: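 Quantitative high-throughput format in HepG2 cells bearing an integrated ARE-beta-lactamase reporter. Compound exposure lasted 16 h at 37 C, and fluorescence was read 2 h after adding LiveBLAzer B/G substrate at room temperature.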

[5] = qHTS assay for small molecule activators of the heat shock response signaling pathway - cell viability counter screen (AID 743209); conditions: HSE-bla HeLa viability, CellTiter-Glo luminescence, 5 h; activity change, negative = cytotoxicity: at 62.6 µM (top of the series) unless noted; further: nearly all actives have a fitted effect of over 50% in size
Outline: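 HSE-bla HeLa cells plated overnight, then exposed to Tox21 compounds (23 nL in DMSO) for 5 h at 37 C. After the bla reporter read, CellTiter-Glo was added in the same wells and luminescence read after 30 min at room temperature.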

[6] = qHTS assay for small molecule activators of the heat shock response signaling pathway (AID 743210; active means well fitted activation curve with a large enough effect in the signal ratio in the repeat runs, with a control signal flat, not every such curve was filed as active; inconclusive means weak or mixed curves; the % refers to the signal ratio); conditions: HeLa HSE-bla reporter, beta-lactamase ratio, 5 h; activation: at 62.6 µM (top of the series)
Outline: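 HeLa HSE-bla cells, overnight plating; cpd in DMSO 5 h, 37 C; LiveBLAzer B/G FRET substrate 2.5 h RT; fluorescence intensity read.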

[7] = qHTS assay to identify small molecule antagonists of the peroxisome proliferator-activated receptor delta (PPARd) signaling pathway - cell viability counter screen (AID 743213); conditions: PPARd-bla HEK293H viability, CellTiter-Glo luminescence, 17 h; viability change, negative = cytotoxic: at 62 µM (top of the series) unless noted; further: nearly all actives have a fitted effect of over 50% in size
Outline: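 PPARd-bla HEK293H cells (3000/well) got compound plus 300 nM L165041 agonist for 17 h at 37 C. Viability in the same wells came from CellTiter-Glo luminescence after 30 min at room temperature.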

[8] = target: Bile acid receptor (Homo sapiens) (UniProt Q96RI1); experiment: qHTS assay to identify small molecule antagonists of the farnesoid-X-receptor (FXR) signaling pathway (AID 743217; active means well fitted inhibition curve with a large enough effect in the signal ratio in the repeat runs, not every such curve was filed as active; inconclusive means weak or mixed curves, or effect the other way; inactive means no such curve, though single readings can be large or run the other way; the % refers to the signal ratio); conditions: HEK293T FXR-UAS-bla, beta-lactamase ratio, CDCA-stimulated, 16 h; activity change, negative = inhibition: at 62.6 µM (top of the series) unless noted
Outline: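 FXR-UAS-bla HEK 293T cells (beta-lactamase reporter) given compound plus chenodeoxycholic acid (50 uM final), 16 h at 37C. LiveBLAzer B/G FRET substrate added for 2 h at room temperature; fluorescence read.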

[9] = qHTS assay to identify small molecule agonists of the farnesoid-X-receptor (FXR) signaling pathway - cell viability counter screen (AID 743218); conditions: FXR-bla HEK293T viability, CellTiter-Glo luminescence, 16 h; viability change, negative = cytotoxic: at 62.6 µM (top of the series) unless noted; further: nearly all actives have a fitted effect of over 45% in size
Outline: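 FXR-UAS-bla HEK 293T cells exposed to compounds for 16 h at 37C. Cytotoxicity read in the same wells by CellTiter-Glo luminescence after 30 min at room temperature, following the beta-lactamase FRET read.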

[10] = target: Bile acid receptor (Homo sapiens) (UniProt Q96RI1); experiment: qHTS assay to identify small molecule agonists of the farnesoid-X-receptor (FXR) signaling pathway (AID 743220; active means well fitted activation curve with a large enough effect in the signal ratio in the repeat runs, not every such curve was filed as active; inconclusive means weak or mixed curves, or effect the other way; the % refers to the signal ratio); conditions: HEK293T FXR-UAS-bla, beta-lactamase FRET ratio, 16 h; activation: at 62.6 µM (top of the series) unless noted
Outline: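 Beta-lactamase reporter under UAS control in GeneBLAzer FXR HEK 293T cells (5000/well) measured with LiveBLAzer FRET substrate after 2 h at room temperature. Compound exposure lasted 16 h at 37C.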

[11] = qHTS assay to identify small molecule antagonists of the farnesoid-X-receptor (FXR) signaling pathway - cell viability counter screen (AID 743221; active means well fitted cell-killing curve with a large enough effect in the repeat runs, not every such curve was filed as active; inconclusive means weak or mixed curves, or effect the other way; inactive means no such curve, though single readings can be large or run the other way; further: nearly all actives have a fitted effect of over 50% in size); conditions: FXR-bla HEK293T viability, CellTiter-Glo luminescence, 16 h; activity change, negative = cytotoxicity: at 62.6 µM (top of the series)
Outline: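 Multiplexed counter screen: viability of FXR-bla HEK 293T cells under agonist stimulation by chenodeoxycholic acid (50 uM, final) and test compound for 16 h at 37 C, measured by CellTiter-Glo luminescence in the reporter wells.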

[12] = target: Vitamin D3 receptor (Homo sapiens) (UniProt P11473); experiment: qHTS assay to identify small molecule antagonists of the vitamin D receptor (VDR) signaling pathway (AID 743223; active means well fitted inhibition curve with a large enough effect in the signal ratio in the repeat runs, not every such curve was filed as active; inconclusive means weak or mixed curves, or effect the other way; inactive means no such curve, though single readings can be large or run the other way; the % refers to the signal ratio); conditions: VDR-UAS-bla HEK293T, beta-lactamase FRET ratio, 16 h; activity change, negative = inhibition: at 61 µM (top of the series) unless noted
Outline: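 Cells carrying a VDR-driven beta-lactamase reporter (VDR-bla) were co-treated with compound and 3 nM final 1alpha,25-dihydroxyvitamin D3 for 16 h at 37C; reporter activity was measured as FRET substrate fluorescence after 2 h at room temperature.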

[13] = qHTS assay to identify small molecule antagonists of the vitamin D receptor (VDR) signaling pathway - cell viability counter screen (AID 743225); conditions: VDR-bla HEK293T viability, CellTiter-Glo luminescence, 16 h; viability change, negative = cytotoxic: at 61 µM (top of the series) unless noted; further: nearly all actives have a fitted effect of over 50% in size; on viability change, negative = cytotoxic: on the % scale 0 is the no-effect control and ±100 the full control effect
Outline: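 HEK293T VDR-bla; cpd + 1a,25-(OH)2D3 3 nM final, 16 h 37C/5% CO2; B/G FRET substrate 2 h RT; then CellTiter-Glo 30 min RT, luminescence.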

[14] = target: Peroxisome proliferator-activated receptor delta (Homo sapiens) (UniProt Q03181); experiment: qHTS assay to identify small molecule agonists of the peroxisome proliferator-activated receptor delta (PPARd) signaling pathway (AID 743212; calls by dose curve; on activation: on the % scale 0 is the no-effect control and ±100 the full control effect); conditions: HEK293H PPARd-UAS-bla, beta-lactamase FRET ratio, 17 h; activation: at 62.6 µM (top of the series) unless noted
Outline: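 HEK293H PPARd-bla cells; 5 h preincubation 37 C/5% CO2; compound (DMSO) 37 C; LiveBLAzer B/G FRET substrate 2 h RT; fluorescence intensity.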

[15] = target: Peroxisome proliferator-activated receptor delta (Homo sapiens) (UniProt Q03181); experiment: qHTS assay to identify small molecule antagonists of the peroxisome proliferator-activated receptor delta (PPARd) signaling pathway (AID 743215; active means well fitted inhibition curve with a large enough effect in the signal ratio in the repeat runs, not every such curve was filed as active; inconclusive means weak or mixed curves, or effect the other way; inactive means no such curve, though single readings can be large or run the other way; the % refers to the signal ratio;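 further: cells stimulated with agonist L165041 at 300 nM final during compound exposure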); conditions: HEK293H PPARd-UAS-bla, beta-lactamase FRET ratio, antagonist, 17 h; ratio activity, negative = inhibition: at 62 µM (top of the series) unless noted
Outline: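 PPARd-bla HEK293H cells (UAS-bla reporter) preincubated 5 h, then given compound plus 300 nM final L165041 agonist for 17 h at 37 C. Beta-lactamase activity read by LiveBLAzer B/G FRET substrate fluorescence after 2 h at room temperature.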

[16] = target: Vitamin D3 receptor (Homo sapiens) (UniProt P11473); experiment: qHTS assay to identify small molecule agonists of the vitamin D receptor (VDR) signaling pathway (AID 743222; calls by dose curve); conditions: HEK293T VDR-UAS-bla, beta-lactamase FRET ratio, 16 h; activation: at 63.5 µM (top of the series) unless noted
Outline: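 VDR-bla cells plated 4 h at 37 C, then exposed to compounds for 16 h at 37 C. Beta-lactamase reporter activity measured by fluorescence after 2 h room-temperature loading with LiveBLAzer B/G FRET substrate.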

[17] = qHTS assay for small molecule agonists of the antioxidant response element (ARE) signaling pathway - cell viability counter screen (AID 743203; calls by dose curve; further: nearly all actives have a fitted effect of over 55% in size); conditions: ARE-bla HepG2 viability, CellTiter-Glo luminescence, 16 h; viability change, negative = cytotoxic: at 73.3 µM (top of the series)
Outline: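 ARE-bla HepG2 cells were plated, rested 5 h at 37C/5% CO2, then exposed to compounds in DMSO for 16 h. Viability was read as CellTiter-Glo luminescence after 30 min at room temperature, in the same wells as the ARE screen.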

[18] = qHTS assay to identify small molecule agonists of the vitamin D receptor (VDR) signaling pathway - cell viability counter screen (AID 743224); conditions: VDR-bla HEK293T viability, CellTiter-Glo luminescence, 16 h; activity change, negative = cytotoxicity: at 62.6 µM (top of the series) unless noted; further: nearly all actives have a fitted effect of over 50% in size
Outline: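 VDR-bla cells, 4 h after plating, exposed to compounds for 16 h at 37C; viability then read in the same wells as CellTiter-Glo luminescence after 30 min at room temperature, following the bla FRET read.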

[19] = qHTS assay to identify small molecule agonists of the peroxisome proliferator-activated receptor delta (PPARd) signaling pathway - cell viability counter screen (AID 743211); conditions: PPARd-bla HEK293H viability, CellTiter-Glo luminescence, 17 h; activity change, negative = cytotoxicity: at 62.6 µM (top of the series); further: nearly all actives have a fitted effect of over 55% in size
Outline: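 Counter screen for cytotoxicity run in parallel with the PPARd reporter screen. Beta-lactamase reporter HEK293H cells exposed to compounds 17 h; ATP-based CellTiter-Glo luminescence quantified viability.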
Potency means the concentration at half of the fitted maximal effect; tags describe the fitted curve by direction and shape or compound fluorescence and quenching.

Chain of UniProt P37231 (P37231 whole entry, looked up): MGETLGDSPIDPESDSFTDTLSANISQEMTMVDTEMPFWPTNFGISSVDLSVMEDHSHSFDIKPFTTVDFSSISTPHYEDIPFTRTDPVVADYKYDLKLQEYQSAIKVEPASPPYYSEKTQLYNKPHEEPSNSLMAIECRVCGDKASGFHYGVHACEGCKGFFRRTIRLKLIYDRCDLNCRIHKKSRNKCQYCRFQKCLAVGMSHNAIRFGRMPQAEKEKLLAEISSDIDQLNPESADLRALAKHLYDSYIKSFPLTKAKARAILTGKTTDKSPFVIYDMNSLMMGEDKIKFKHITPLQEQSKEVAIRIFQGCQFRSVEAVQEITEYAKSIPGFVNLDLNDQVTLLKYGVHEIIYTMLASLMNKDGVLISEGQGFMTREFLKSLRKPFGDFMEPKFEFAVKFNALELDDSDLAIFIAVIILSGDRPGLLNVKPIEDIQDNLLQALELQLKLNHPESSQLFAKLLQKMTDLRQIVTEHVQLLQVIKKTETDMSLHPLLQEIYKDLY
Chain of UniProt P11473 (P11473 whole entry, looked up): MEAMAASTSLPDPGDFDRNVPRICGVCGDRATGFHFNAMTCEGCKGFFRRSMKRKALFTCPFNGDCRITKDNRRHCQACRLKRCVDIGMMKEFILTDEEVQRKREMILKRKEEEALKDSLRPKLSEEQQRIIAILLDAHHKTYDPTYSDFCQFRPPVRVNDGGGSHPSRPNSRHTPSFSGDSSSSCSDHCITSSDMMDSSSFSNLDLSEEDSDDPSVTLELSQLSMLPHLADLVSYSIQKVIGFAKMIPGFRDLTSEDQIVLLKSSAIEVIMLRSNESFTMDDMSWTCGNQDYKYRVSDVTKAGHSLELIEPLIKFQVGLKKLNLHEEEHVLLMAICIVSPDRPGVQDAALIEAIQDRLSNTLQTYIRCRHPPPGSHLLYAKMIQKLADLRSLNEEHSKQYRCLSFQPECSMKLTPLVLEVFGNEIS
Chain of UniProt Q96RI1 (Q96RI1 whole entry, looked up): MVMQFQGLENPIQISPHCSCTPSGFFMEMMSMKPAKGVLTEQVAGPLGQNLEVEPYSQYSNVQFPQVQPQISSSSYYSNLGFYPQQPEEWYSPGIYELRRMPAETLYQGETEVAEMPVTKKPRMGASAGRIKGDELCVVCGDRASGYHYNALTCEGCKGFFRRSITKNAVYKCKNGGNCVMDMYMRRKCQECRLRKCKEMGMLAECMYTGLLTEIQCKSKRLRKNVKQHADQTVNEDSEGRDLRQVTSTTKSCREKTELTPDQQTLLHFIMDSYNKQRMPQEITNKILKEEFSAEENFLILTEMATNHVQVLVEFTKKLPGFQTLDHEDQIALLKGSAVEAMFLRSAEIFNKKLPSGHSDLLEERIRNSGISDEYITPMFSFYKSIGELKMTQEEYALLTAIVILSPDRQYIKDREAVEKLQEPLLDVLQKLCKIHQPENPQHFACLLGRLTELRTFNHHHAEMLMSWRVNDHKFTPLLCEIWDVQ
Chain of UniProt Q03181 (Q03181 whole entry, looked up): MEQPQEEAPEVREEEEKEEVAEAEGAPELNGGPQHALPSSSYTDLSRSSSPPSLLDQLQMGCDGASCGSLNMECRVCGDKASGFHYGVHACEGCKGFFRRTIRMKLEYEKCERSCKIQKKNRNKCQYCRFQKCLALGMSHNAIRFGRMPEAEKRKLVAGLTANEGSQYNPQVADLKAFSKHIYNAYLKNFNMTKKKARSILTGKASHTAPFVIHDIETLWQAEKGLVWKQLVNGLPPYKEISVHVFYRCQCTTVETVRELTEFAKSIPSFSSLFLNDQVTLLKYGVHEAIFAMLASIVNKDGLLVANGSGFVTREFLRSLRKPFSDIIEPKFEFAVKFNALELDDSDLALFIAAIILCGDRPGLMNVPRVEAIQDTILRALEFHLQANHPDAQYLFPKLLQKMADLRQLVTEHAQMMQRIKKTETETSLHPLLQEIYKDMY

Cc1cc(O)c(Cl)c(C)c1Cl
Potency [1]: inconclusive: 61.1 µM [falling, single point]
Potency [2]: inconclusive: 61.6 µM [cytotoxic]
Potency [3]: inconclusive: 54.9 µM [cytotoxic, single point]
Potency [4]: inconclusive: 24.3 µM [falling, partial curve]
Potency [5]: active: 38.9 µM
Potency [6]: inconclusive: 38.9 µM [falling, partial curve]
Potency [7]: inconclusive: 54.9 µM [cytotoxic, partial curve, poor fit]
Potency [8]: active: 49 µM
Potency [9]: active: 49 µM
Potency [10]: inconclusive: 54.9 µM [falling, single point]
Potency [11]: active: 49 µM
Potency [12]: inconclusive: 692 nM [rising, full curve, poor fit]
Potency [13]: active: 38.9 µM

O=c1cc(-c2ccccc2)oc2ccccc12
Potency [1]: inconclusive: 60.8 µM [falling, partial curve, poor fit]
Potency [2]: inconclusive: 55 µM [inhibitor] and inconclusive: 154 µM [inhibitor, partial curve, poor fit]
Potency [4]: inconclusive: 2.17 µM [falling, partial curve, poor fit] and inconclusive: 1.71 µM [falling, partial curve, poor fit]
Potency [6]: inconclusive: 59 µM
activation [14]: inconclusive: 9.45%
Potency [7]: inconclusive: 0.0154 µM [cytotoxic, full curve, poor fit]
Potency [15]: inconclusive: 1.94 µM [fluorescent, partial curve, poor fit]
Potency [9]: inconclusive: 49 µM [rising, partial curve, poor fit] and inconclusive: 12.3 µM [rising, partial curve, poor fit]
Potency [16]: inconclusive: 19.4 µM [rising, partial curve]
Potency [12]: inconclusive: 194 nM [inhibitor, full curve, poor fit]

Cc1oncc1C(=O)Nc1ccc(C(F)(F)F)cc1
Potency [1]: inconclusive: 68.6 µM
Potency [2]: inactive
Potency [17]: inconclusive: 34.4 µM [cytotoxic, partial curve]
Potency [5]: inconclusive: 24.5 µM [cytotoxic, full curve]
Potency [6]: inconclusive: 49 µM [falling, partial curve]
Potency [14]: inactive
Potency [7]: active: 49 µM and inconclusive: 8.41 µM [cytotoxic, partial curve, poor fit]
Potency [15]: inconclusive: 49 µM [partial curve]
Potency [8]: inconclusive: 54.9 µM
Potency [9]: inconclusive: 54.9 µM [cytotoxic, single point]
Potency [11]: inconclusive: 54.9 µM [falling, single point]
Potency [18]: active: 38.9 µM
Potency [13]: inactive

CCN=c1cc2oc3cc(NCC)c(C)cc3c(-c3ccccc3C(=O)OCC)c-2cc1C
Potency [1]: active: 6.83 µM and active: 7.7 µM
Potency [2]: inconclusive: 21.8 µM [fluorescent, single point] and inconclusive: 21.9 µM [single point]
Potency [3]: active: 10.9 µM and active: 6.92 µM
Potency [4]: inconclusive: 76.6 µM [falling, single point] and inconclusive: 77 µM [falling, single point]
Potency [5]: active: 30.8 µM and active: 19.5 µM
Potency [19]: active: 48.8 µM and active: 27.5 µM
Potency [14]: inconclusive: 15.4 µM [rising, partial curve, poor fit]
Potency [7]: active: 38.8 µM and active: 24.5 µM
Potency [15]: inconclusive: 61.4 µM [inhibitor, single point] and inconclusive: 347 nM [inhibitor, full curve, poor fit]
Potency [9]: active: 48.8 µM and active: 38.9 µM
Potency [10]: inconclusive: 21.9 µM [activator, partial curve]
Potency [16]: inconclusive: 15.4 nM [rising, full curve, poor fit] and inconclusive: 6.17 µM [rising, full curve, poor fit]
Potency [12]: inconclusive: 54.7 µM and inconclusive: 38.9 µM [partial curve]
Potency [13]: active: 48.8 µM and active: 24.5 µM

CC(=O)OC/C=C(C)/C=C/C=C(C)/C=C/C1=C(C)CCCC1(C)C
Potency [1]: inactive
Potency [2]: inconclusive: 53.6 µM and inconclusive: 61.7 µM [fluorescent, single point] and inactive
Potency [3]: inconclusive: 0.944 µM [rising, partial curve, poor fit]
activation [4]: inconclusive: 28.8%
Potency [6]: inconclusive: 53.6 µM [activator, single point] and inconclusive: 54.9 µM and inconclusive: 33.5 µM [activator, single point]
Potency [19]: inconclusive: 53.6 µM [cytotoxic, partial curve, poor fit] and inconclusive: 54.9 µM [cytotoxic, single point] and inconclusive: 11.9 µM [cytotoxic, partial curve, poor fit]
Potency [15]: inconclusive: 53.6 µM [fluorescent, single point] and inactive
Potency [16]: inconclusive: 0.024 µM [rising, full curve, poor fit]
Potency [12]: inconclusive: 47800 nM [fluorescent]
activity change, negative = inhibition [12]: inconclusive: 2.76%
